Measurements published in PubChem BioAssay AID493208 (National Center for Advancing Translational Sciences (NCATS), 2011).
About 340 (0.77%) of roughly 44,000 compounds were called active. Inconclusive results (about 5%) are left out. Calls follow the shape of the dose curve; as a rule, active = well fitted inhibition curve with a large enough effect; inconclusive = small, poorly fitted or top-dose-only effect; inactive = flat fitted curve, though single readings scatter. Some of the results follow.

experiment: Acumen qHTS Assay for Inhibitors of the mTORC1 Signaling Pathway in MEF (Tsc2-/-, p53-/-) Cells: Sytravon; conditions: phospho-rpS6 immunofluorescence/PI, 24 h; series mostly up to 38.3 µM; activity change, negative = inhibition: at the top concentration;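 also: plate controls were DMSO for no effect and rapamycin for full effect; nearly all actives have a fitted effect of over 50% in size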
Method in brief: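 Tsc2-/-, p53-/- mouse embryonic fibroblasts (empty-vector line) exposed to compound 24 hrs at 37 C, fixed, immunostained for phospho-rpS6 and counterstained with propidium iodide. Acumen laser scanning gives % positive cells from Alexa 488/PI ratio, thresholded using 7.5 nM rapamycin; PI count gives viability.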

Activity change, negative = inhibition, inactive:
Cc1ccc(-n2nc(CO)c(C(=O)NCc3ccccn3)n2)cc1 -5.48%
COc1ccc(OCc2ccc(-c3nc(C#N)c(N4CCN(c5ccccc5)CC4)o3)o2)cc1 2.74%
Cc1cc(-c2ccc(C)c(S(=O)(=O)Nc3cccc(C)n3)c2)on1 3.88%
CC(=O)Nc1ccc(NC(=O)c2cc(=O)c3ccccc3o2)cc1 2.83%
CCc1ccc(-n2nnc(-c3nsc(NC(=O)c4ccccc4Cl)n3)c2C)cc1 8.93%
Cc1ccc2c(c1)N(C(=O)N1CCC(C(=O)NCc3cccc(Br)c3)CC1)CCO2 5.45%
CCOC(=O)c1cc(-c2ccccc2)n(CCC(=O)NCc2ccccc2Cl)c1C -6.5%
COc1ccc(Nc2nc3ccccc3nc2NS(=O)(=O)c2ccc(C)cc2)c(OC)c1 5.99%
O=C(COc1ccccc1F)OCc1cc(=O)n2nc(C3CCCCC3)sc2n1 -13.1%
CCN(CC)c1cc(C)c2cc(NC(=O)c3cccc(OC)c3OC)ccc2n1 0%
COc1cccc2cc(S(=O)(=O)c3ccc(F)c(C)c3)c(=O)oc12 -8.63%
O=C1Nc2ccccc2Oc2cc(Oc3cccc(Cl)c3)ccc21 -21.5%
Cc1cc(C)c(S(=O)(=O)N2CCC(n3c(C(F)(F)F)nc4cccnc43)CC2)c(C)c1 3.76%
Cc1nc2nc(SCC(=O)N(C)Cc3ccccc3)nn2c(C)c1Cc1ccccc1Cl 1.48%
CCCCN(C)CCNC(=O)C1CCCN(S(=O)(=O)c2cccc3nsnc23)C1 (configuration not stated) 0.381%
Cc1c(Cl)cccc1-c1ccc(CNCCCSc2nnnn2C)o1 0.29%
CCc1ccc(S(=O)(=O)c2cn(C)c3cc(N4CCOCC4)c(F)cc3c2=O)cc1 0.505%
Fc1ccc(N2CCN(c3nc4ccccc4c4nc(-c5cccnc5)nn34)CC2)cc1 -14.1%
Cc1cn2c(=O)cc(COc3cccc(NC(=O)c4ccc(C(C)(C)C)cc4)c3)nc2s1 -14.8%
CCOC(=O)C1CCN(CC(=O)Nc2cc(C)c3c(=O)oc4ccccc4c3n2)CC1 2.29%
C=CCc1ccccc1OCCSc1nc(-c2cccs2)nc2cc(=O)[nH]n12 3.54%
CCOc1ccc(NC(=O)c2c(C)nn(-c3ccc(F)cc3)c2-n2cccc2)cc1 -2.98%
Cc1nn(-c2ccccc2)c2nc(C3CC3)cc(C(=O)Nc3ccc(F)cc3)c12 5.48%
CCc1c(C)sc2c1CCN(Cc1ccccc1)C2c1ccccc1 (configuration not stated) 4.44%
O=C(Nc1ccc(OCc2cc(=O)n3c4c(sc3n2)CCCC4)cc1)c1cccc(F)c1 1.25%
Cc1ccc(NC(=O)CN(C)S(=O)(=O)c2ccc3c(c2)n(C)c(=O)c(=O)n3C)cc1F -22%
CC1(C)Cc2c(c(N3CCOCC3)nc3sc(C(=O)Nc4ccc(Cl)cc4)c(N)c23)CO1 2.69%
CCOc1ccc(S(=O)(=O)Nc2cccc(-c3ccc(N4CCCC4)nn3)c2)cc1 0.666%
Cc1cccc(NC(=O)CSc2nc(-c3cccc(C)c3)nc3c2Cc2c(CO)cnc(C)c2O3)c1 -0.619%
CCc1nc2ccc(C(=O)NCc3ccc(OC)c(OC)c3)cc2nc1CC 0.312%
Cc1ccc2c(c1)-c1onc(C(=O)N(C)c3cccc(C(F)(F)F)c3)c1CO2 0%
Cc1ccccc1CNC(=O)Cn1c(C)c2cnn(-c3ccccc3)c(=O)c2c1C -2.18%
CCCCOc1ccc(C(=O)Nc2cc(-c3ccc(C)cc3)no2)cc1 1.06%
CCOC(=O)c1sc(N2C(=O)c3oc4ccccc4c(=O)c3C2c2ccc(C(C)(C)C)cc2)nc1C (configuration not stated) -0.906%
CCOC(=O)COc1ccc(/C=C(\C#N)c2nc3ccc(C)cc3[nH]2)cc1OC -6.4%
Cc1cccn2c3c(c(=O)nc12)C(c1cccc(F)c1)CC(=O)N3 (configuration not stated) -4.01%
CCC1CCCCN1Cc1c(O)ccc2c(=O)c(Oc3ccccc3Cl)c(C(F)(F)F)oc12 (configuration not stated) 1.8%
Cc1ccc(CNC(=O)c2ccc3c(c2)CCN3S(=O)(=O)c2ccccc2)cc1 -2.92%
Cc1ccc(C)c(NC(=O)CSc2c(C)cnc3c2c(=O)n(C)c(=O)n3C)c1 -3.32%
O=C(Cn1cnc2nc3c(cc2c1=O)CCCC3)N1CCN(c2cccc(C(F)(F)F)c2)CC1 -11.5%
CCOc1ccc(OCC)c(NS(=O)(=O)c2c(C)[nH]c(=O)[nH]c2=O)c1 -4.08%
CCC(=O)N1c2ccccc2CC1C(=O)N1CCN(c2cccc(OC)c2)CC1 (configuration not stated) 5.52%
COc1ccc(CCNC(=O)c2csc3c2CCCCC3)c(OC)c1 -4.27%
COc1ccc(Cn2c(C(=O)O)c(CNC3CCCC3)c3ccc(C)cc32)cc1 -3.15%
Cc1ccc(N(C)C(=O)CC(C)S(=O)(=O)c2ccc3c(c2)NC(=O)CO3)cc1 (configuration not stated) 4.73%
CCc1ccc(NC(=O)Cn2ccn(-c3ccc(OC)cc3)c(=O)c2=O)cc1 -2.22%
Cc1cccc(NC(=O)CC2Nc3cccc4cccc(c34)NC2=O)c1 (configuration not stated) -12.5%
COC(=O)c1cc2oc(C)cc2n1Cc1cc(C)ccc1C -1.11%
Cc1ccc(C)c(NC(=O)Cn2ncc3c([nH]c4ccccc43)c2=O)c1 -9.01%
CCOc1ccc(NC(=O)CSc2nc(-c3cccc(Cl)c3)nc3c2Cc2c(CO)cnc(C)c2O3)cc1 -2.61%
CCCCN1C(=O)CN(C2CCCCCC2)C(=O)C1c1ccc(OCC)c(OC)c1 (configuration not stated) 8.11%
COCCN(Cc1ccco1)C(=O)Cn1ncc2c([nH]c3ccccc32)c1=O -19.9%
Cc1cc2c(cc1S(=O)(=O)CCC(=O)N(C)C1CCCCC1)OCC(=O)N2 -2.11%
Cc1ccc(-c2nnn3c2nc(NCCc2ccccc2)c2ccccc23)cc1 -1.84%
CN(c1ncnc2c1c(-c1ccccc1)cn2-c1cccc(Cl)c1)C1CCCCC1 6.28%
COc1cccc(NC(=O)CCc2nc(-c3ccc(C(C)(C)C)cc3)no2)c1 -15%
CCc1ccc(CN(Cc2ccco2)C(=O)COc2ccccc2Cl)cc1 -26.3%
Cc1ccc(-c2nnc(Nc3cccc(Br)c3)c3ccccc23)cc1S(=O)(=O)N1CCCCC1 9.15%
Cc1cccc(-n2c(=O)c3c(c4cc(C)ccc4n3C)n(C)c2=O)c1 -0.791%
Cc1c(Cl)cccc1NC(=O)N1CCC(CN2CCOCC2)CC1 -2.84%
Cc1ccc(C)c(C(=O)CSc2nc(-c3ccccc3)nc3c2CCCC3)c1 -18.5%
CC(=O)OCc1cnc(C)c2oc(=O)c(C(=O)Nc3cc(F)ccc3C)cc12 1.25%
